PubChem BioAssay AID651820 (National Center for Advancing Translational Sciences (NCATS), 2012)
Hit rate of the full screen: of about 340,000 compounds, about 12,000 (3.5%) were called active. Inconclusive results, whose numbers are uncertain, are shown with a selection of clear calls. The call rests on the fitted dose curve; in most records, active means well fitted inhibition curve with a large enough effect; inconclusive means small, poorly fitted or top-dose-only effect, or another doubt; inactive means no such curve, though single readings can be large or run the other way. No potency is given beside an inconclusive call; the fits are too rough.

Assay: qHTS Assay for Inhibitors of Hepatitis C Virus (HCV)
Conditions: Huh7.5.1 HCVcc-Cre (HCVcc is cell-culture hepatitis C virus) infection, luciferase reporter, 44 h; activity change, negative = inhibition: at 41.8 µM (top of the series) unless noted
Summary of the method: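 Luciferase read-out (15 sec integration) after a 15 min room-temperature substrate step quantifies HCVcc-Cre infection. Cells, 1,000 per well, had compound added 4 h post-plating, then virus at ~0.5 moi, and were cultured 44 h.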
On the % scale 0 is the no-effect control and ±100 the full control effect; potency means the concentration at half of the fitted maximal effect; tags describe the fitted curve by direction and shape.

Row | Structure (SMILES) | Potency | activity change, negative = inhibition
1 | C=C(C)CSc1nc2sc3c(c2c(=O)n1-c1ccccc1)CCN(C)C3 | inconclusive [inhibitor, partial curve, poor fit] | –
2 | Fc1ccc(-c2nnc3ccc(N4CCc5ccccc5C4)nn23)cc1 | inconclusive [inhibitor, partial curve] | –
3 | COc1ccc(S(=O)(=O)N(C(=O)c2ccncc2)c2ccc3oc4c(c3c2)CCCC4)cc1 | inconclusive [inhibitor, partial curve] | –
4 | COc1ccc(CCNC(=O)CC(=O)NCCc2ccc(OC)cc2)cc1 | inactive | –
5 | Cc1cc(C)n(S(=O)(=O)c2cc(C)c(C)cc2C)n1 | inconclusive [inhibitor, partial curve] | –
6 | O=C(CSc1nnc(-c2ccccc2O)o1)N1CCc2ccccc2C1 | inconclusive [inhibitor, partial curve] | –
7 | O=C(Nc1ccccc1)c1nn(-c2ccccc2)c(=O)cc1C(F)(F)F | inconclusive [inhibitor, single point] | –
8 | CCN(CC)CCC(=O)N1c2ccccc2Sc2ccc(NC(=O)OC)cc21 | – | inconclusive: -30.8% [inhibitor]
9 | C=CCNc1nc(-c2cc3ccccc3o2)cs1 | inconclusive [inhibitor, single point] | –
10 | Cn1c(=O)c(N)c2c3c(c(Br)ccc31)C(=O)c1ccccc1-2 | inconclusive [inhibitor, single point] | –
11 | CSc1nc(N)nc2c1ncn2CC(=O)NCC(c1ccccc1)c1ccccc1 | inconclusive [inhibitor, single point] | –
12 | COC(=O)CS(=O)(=O)c1ccc2c(c1)CC(=O)N2 | inactive | –
13 | CCC1(c2ccc(OC)cc2)NC(=O)N(CC(=O)c2ccc3c(c2)OCCO3)C1=O (centres undefined) | inconclusive [inhibitor, single point] | –
14 | CC(C)CN(C(=O)COC(=O)CCSc1ccc(F)cc1)c1c(N)n(Cc2ccccc2)c(=O)[nH]c1=O | inconclusive [inhibitor, single point] | –
15 | Cc1ccccc1C(=O)N1CCN(c2ccc(NC(=O)c3ccc4c(c3)OCO4)cc2)CC1 | inconclusive [inhibitor, single point] | –
16 | Cc1ccc(NC(=S)NCc2ccccc2)cc1[N+](=O)[O-] | inactive | –
17 | CCS(=O)(=O)c1nc2ccccc2n1Cc1ccccc1Cl | inconclusive [inhibitor, single point] | –
18 | O=C(Nc1cc(F)ccc1F)N1CCN(c2ccnc3cc(Cl)ccc23)CC1 | active: 11.2 µM | –
19 | Cc1sc(NC(=O)c2ccco2)c(C(c2cccnc2)N2CCN(C)CC2)c1C (centres undefined) | inconclusive [inhibitor, single point] | –
20 | O=C(CSc1nnc(-c2ccco2)n1Cc1ccccc1)OC1CCCCC1 | inactive | –
21 | COc1ccc(Br)cc1CNC(=O)Nc1cccs1 | inconclusive [inhibitor, single point] | –
22 | Cc1nn(-c2ccc(N3CCCCC3)nn2)c(C)c1CCC(=O)Nc1ccc(F)cc1 | inconclusive [inhibitor, partial curve] | –
23 | C1=C(c2ccccc2)Nc2nnnn2C1 | inconclusive [inhibitor, single point] | –

Row | Structure (SMILES) | Potency | activity change, negative = inhibition
24 | Cc1ccccc1NC(=O)CCc1c(C)nn(-c2ccc(N3CCCCC3)nn2)c1C | inconclusive [inhibitor, single point] | –
25 | CN(c1ccccc1)c1nc(N)c([N+](=O)[O-])c(Nc2cccc(F)c2)n1 | inconclusive [inhibitor, partial curve] | –
26 | S=C(NCCCc1ccccc1)Nc1ccc(Br)cc1 | inconclusive [inhibitor, single point] | –
27 | CSc1ncc(CN2CCC(C(=O)Nc3cccc(-c4cscn4)c3)CC2)cn1 | inconclusive [inhibitor, single point] | –
28 | O=C(NC(=S)N1CCCc2ccccc21)c1ccccc1 | inconclusive [inhibitor, single point] | –
29 | CCOC(=O)C1CCN(c2c(C(=O)c3ccccc3)cnc3ccc(CC)cc23)CC1 | inconclusive [inhibitor, single point] | –
30 | COc1ccc(-c2sc3cc(OC)c(OC)cc3c2C#CCCO)cc1 | inconclusive [inhibitor, full curve] | –
31 | COc1ccc(Cl)cc1C(=O)NCCN1CCOCC1 | inactive | –
32 | Cc1ccc(S(=O)(=O)N[C@@H](Cc2ccccc2)C(=O)N2CCC(C(=O)N[C@@H](CC(C)C)C(=O)O)CC2)cc1 | inactive | –
33 | O=C(NCc1ccccc1Cl)c1nnc(CS(=O)(=O)c2ccccc2)o1 | inactive | –
34 | O=C(C[n+]1ccc(C(=O)NCc2ccccc2)cc1)c1ccc(Cl)cc1 | inactive | –
35 | COc1ccc(-c2csc(NC(=O)CSCC(=O)Nc3cc(C)on3)n2)cc1 | inconclusive [inhibitor, partial curve] | –
36 | C=CCn1c(SCC(=O)c2[nH]c(C)c(C(=O)OCC)c2C)nc2scc(-c3ccccc3)c2c1=O | inconclusive [inhibitor, partial curve] | –
37 | CCOc1ccc(CN(C)Cc2cc(=O)oc3c(C)c(C)ccc23)cc1OC | active: 11.2 µM | –
38 | CC(C)(C)OC(=O)NCCC(=O)N/N=C/c1ccc2ncccc2c1 | inactive | –
39 | Cc1cc(C)cc(NC(=S)N2CCN(S(=O)(=O)c3ccccc3)CC2)c1 | inconclusive [inhibitor, single point] | –
40 | CC(C)/C(=N/Nc1ccccc1[N+](=O)[O-])c1ccccc1 | inconclusive [inhibitor, single point] | –
41 | NC(=O)CC(NC(=O)c1ccc(Br)cc1)c1ccc(NCc2ccc(F)c(F)c2)c([N+](=O)[O-])c1 (centres undefined) | inactive | –
42 | CCN(CC)CCOC(=O)C12CC3CC(CC(C3)C1)C2 | inactive | –
43 | O=C(CN(C(=O)CCC(=O)Nc1nccs1)c1cccc(C(F)(F)F)c1)NCC1CCCO1 (centres undefined) | inactive | –
44 | Cc1cccn2c(=O)c(/C=C(\C#N)C(=O)NC3CCS(=O)(=O)C3)c(N3CCC(C)CC3)nc12 (centres undefined) | inactive | –
45 | O=C(/C=C/c1ccc(S(=O)(=O)N2CCOCC2)cc1)N1CCN(c2ccccc2)CC1 | active: 2 µM | –
46 | COc1ccccc1CNc1ccc([N+](=O)[O-])cc1C | inconclusive [inhibitor, single point] | –

Row | Structure (SMILES) | Potency | activity change, negative = inhibition
47 | O=C(Nc1cc2c3c(c1)CC(=O)N3CCC2)c1ccc(Br)o1 | inconclusive [inhibitor, single point] | –
48 | Cc1nc(-c2cc(C#N)c(Sc3cccc(C(F)(F)F)c3)nc2C)cs1 | inconclusive [inhibitor, full curve] | –
49 | CCOC(=O)C(=Cc1ccc(OCc2ccc([N+](=O)[O-])cc2)c(OC)c1)C(=O)OCC | inconclusive [inhibitor, partial curve] | –
50 | COc1ccc(-n2nc3c(N4CCC(C(=O)NCCc5ccco5)CC4)nnc(C)c3c2C)cc1 | inconclusive [inhibitor, partial curve] | –
51 | Cc1ccc(CCNC(=O)CCn2c(=O)c3cccn3c3ccc(F)cc32)cc1 | inconclusive [inhibitor, partial curve] | –
52 | CCNc1nnc(SCC(=O)c2cc(C)n(C3CC3)c2C)s1 | inconclusive [inhibitor, partial curve] | –
53 | CCOc1ccc(S(=O)(=O)NCC(c2ccc3c(c2)OCO3)N2CCN(C)CC2)cc1 (centres undefined) | inconclusive [inhibitor, single point] | –
54 | CNC(=O)c1cc(S(=O)(=O)N(C)C)ccc1Cl | inactive | –
55 | CS(=O)(=O)N1CCN(c2ccc(C(=O)NC34CC5CC(CC(C5)C3)C4)cc2[N+](=O)[O-])CC1 | inactive | –
56 | Cn1c(SCC(N)=O)nnc1-c1ccccc1 | inconclusive [inhibitor, single point] | –
57 | CCOc1cccc(CNCCc2c(C)[nH]c3ccc(OC(F)(F)F)cc23)c1O | inconclusive [inhibitor, full curve] | –
58 | COc1ccc(NC(=O)c2cccc3ccccc23)cc1 | inactive | –
59 | Cc1ccc(S(=O)(=O)N2CCC(N3CCN(C)CC3)CC2)cc1Cl | inconclusive [inhibitor, single point] | –
60 | CC1(C)Cc2c(c(N3CCOCC3)nc3sc4c(=O)[nH]cnc4c23)CS1 | inconclusive [inhibitor, single point] | –
61 | C/C(=N\Nc1nc2ccccc2s1)c1ccc2c(c1)OCO2 | inconclusive [inhibitor, single point] | –
62 | Cc1cccc(-c2cc3nc4c(c(N5CCC6(CC5)OCCO6)n3n2)CCCC4)c1 | active: 10 µM | –
63 | O=C(Nc1ccc(F)cc1)c1ccc(Br)c(S(=O)(=O)N2CCOCC2)c1 | inconclusive [inhibitor, single point] | –
64 | O=C(Cc1csc(-c2ccccc2)n1)NCc1ccc(F)cc1 | inconclusive [inhibitor, single point] | –
65 | O=C(NNC(=O)c1ccc[nH]1)c1cccc(C(F)(F)F)c1 | inactive | –
66 | O=C(Nc1cn(-c2ccccc2)nc1-c1cccs1)c1ccco1 | inconclusive [inhibitor, single point] | –
67 | COc1cc(NC(=O)c2ccccc2F)c(OC)cc1NC(=O)CN1CCOCC1 | inconclusive [inhibitor, partial curve] | –
68 | CCN(CC)CC(O)Cn1c(C)c(-c2ccccc2)c2cc([N+](=O)[O-])ccc21 (centres undefined) | active: 14.1 µM | –
69 | CC(C)c1cc(-c2cc(C(=O)NCc3ccccc3)on2)nc(NC2CCCC2)n1 | inconclusive [inhibitor, partial curve] | –
